From patent US20250136680A1 (SHANGHAI QILU PHARMACEUTICAL RESEARCH AND DEVELOPMENT CENTRE, published 2025)

Tests used:
[1] = molecular target: T1, human CD3 (hCD3) naturally expressed on Jurkat cells (human, UniProt P07766); assay: flow cytometry (FACS) on Jurkat cells naturally expressing hCD3
T1 construct: whole, on cells; on the cells it is part of the whole TCR/CD3 complex; also called Jurkat cell line

[2] = molecular target: human CD3 (purchased from Acro, Cat. No. CDD-H52W1) (human, UniProt P07766 23-126); assay: SPR (Biacore 8K), CD3 immobilised directly on CM5, bispecific as analyte, 1:1 Langmuir fit
[3] = molecular target: T2, cynomolgus CD3 (purchased from Acro, Cat. No. CDD-C52W4) (cynomolgus, UniProt Q95LI5 22-117); assay: as above
T2 sequence (looked up): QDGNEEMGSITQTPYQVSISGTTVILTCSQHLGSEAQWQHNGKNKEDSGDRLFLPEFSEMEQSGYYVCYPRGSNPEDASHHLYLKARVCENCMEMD

[4] = molecular target: T3, cynomolgus DLL3 (purchased from Kaixia, Cat. No. DLL-RM103) (cynomolgus, UniProt A0A2K5WSR1 27-490); assay: SPR (Biacore 8K), bispecific captured by anti-human Fc on CM5, DLL3 as analyte, 1:1 Langmuir fit
T3 construct: Bought recombinant protein
T3 sequence: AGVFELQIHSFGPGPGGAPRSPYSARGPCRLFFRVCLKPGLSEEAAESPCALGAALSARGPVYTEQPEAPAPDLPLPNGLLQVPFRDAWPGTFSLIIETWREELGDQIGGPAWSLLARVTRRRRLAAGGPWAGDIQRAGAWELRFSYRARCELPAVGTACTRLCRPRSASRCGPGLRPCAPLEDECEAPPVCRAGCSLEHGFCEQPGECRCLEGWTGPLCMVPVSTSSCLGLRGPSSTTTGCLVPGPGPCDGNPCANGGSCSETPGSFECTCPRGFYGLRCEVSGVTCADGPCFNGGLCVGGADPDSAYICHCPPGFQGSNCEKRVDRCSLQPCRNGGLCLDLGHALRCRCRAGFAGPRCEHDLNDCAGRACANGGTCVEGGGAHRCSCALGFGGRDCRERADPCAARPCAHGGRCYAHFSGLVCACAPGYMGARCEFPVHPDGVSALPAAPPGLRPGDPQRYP

B1: Bispecific antibody 1 (bispecific antibody)
chain: EVQLVESGGGLVQPGGSLRLSCAASTYTISSGYMGWFRQAPGKEREGVAAIYIGGSTTLYADSVKGRFTISRDNSKNTLYLQMNSLRAEDTAVYYCAAQLRPNAAYHPLDGRKYNYWGQGTLVTVSSGGGGSEVKLVESGGGLVQPGGSLKLSCAASGFTFNTYAMNWVRQAPGKGLEWVARIRSKYNNYATYYADSVKDRFTISRDDAKNTLYLQMNNLRTEDTAVYYCVRHGNFGNSYVSWFAYWGQGTLVTVSSGGGGSGGGGSGGGGSQAVVTQEPSLTVSPGGTVTLTCRSSTGAVTTSNYANWVQQKPGQAPRGLIGGTNKRAPGTPARFSGSLLGGKAALTLSGAQPEDEAEYYCALWYSNLWVFGGGTKLTVL[here human IgG1 Fc with changes without letters]
notes: Two homologous chains, each anti-DLL3 VHH (from hDLL3-3-1-NA) fused to the anti-CD3 scFv of h160C9AA and an IgG1 Fc with L234A/L235A; also called anti-CD3-DLL3 bispecific antibody; DLL3 VHH-(G4S)-CD3VH-(G4S)3-CD3VL-(EPKSS)-IgG1 Fc
EC50 [1]: 5.28 nM
Kd [2]: 0.246 nM
koff [2]: 0.000784 s⁻¹
Kd [3]: 0.24 nM
koff [3]: 0.000611 s⁻¹
Kd [4]: 4.15 nM
koff [4]: 0.00132 s⁻¹
kon [4]: 319000 M⁻¹ s⁻¹
